From PubChem BioAssay AID1347073 (National Center for Advancing Translational Sciences (NCATS), 2019) come the findings set out here.

Screen size: about 45,000 compounds; about 200 (0.44%) were called active. About 7% were inconclusive and are not listed. The call rests on the fitted dose curve; in most records, active means well fitted activation curve with a large enough effect; inconclusive means small, poorly fitted or top-dose-only effect; inactive means no such curve, though single readings can be large or run the other way. The list shows a part of the results.

A short description of the test: qHTS of TDP-43 Inhibitors: NCGC Sytravon Library Screen. Further: 0% is about no effect; nearly all actives have a fitted effect of over 55% in size. The settings on record: yeast TDP-43 toxicity rescue, BacTiter-Glo growth, 24 h; series mostly up to 46.1 µM; growth rescue (activation): at the top concentration. In outline:
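TDP-43-expressing yeast, pregrown in raffinose, seeded at OD600 0.02 in galactose medium with compound for 24 hr at 30 deg C. Growth read by BacTiter-Glo luminescence, so rescue of toxicity appears as activation.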
On the technique in general: In qHTS, concentration-response curves come from the screen itself.
In the case of `COc1ccccc1/C=C/C=C1\Oc2c(ccc(O)c2CN2CCN(CCO)CC2)C1=O`, the “growth rescue (activation)” value was inactive: -4.05%.
As to `CC(=O)c1ccc(N2CCN(c3ncccn3)CC2)cc1`, the “growth rescue (activation)” value was inactive: 20.6%.
For `Nc1cc(=O)[nH]c(SCC(=O)Nc2cccc(S(=O)(=O)N3CCCCC3)c2)n1` the value was inactive: -1.76%; for `CCC(=O)N1CCC1(C)C(=O)NCc1ccc(SC)cc1` (stereo unspecified), inactive: -7.69%.
Under `COc1ccc(CN(C)c2ncnc(N)n2)cc1` stands inactive: 12.6%; under `CCCCn1c(Cn2nc(C(=O)O)c3ccccc3c2=O)nc2cc(S(N)(=O)=O)ccc21`, inactive: -10.1%.
Under `Cc1ccc(Cn2c(SC(C)C(N)=O)nc3ccccc3c2=O)cc1` (stereo unspecified) stands inactive: 20.8%.
On to `COCC(C)n1c(C)cc(C(=O)COC(=O)c2nn(C)c(=O)c3ccccc23)c1C` (stereo unspecified), for which the “growth rescue (activation)” value was inactive: 18.6%.
`CC[C@H](C)[C@H](NC(N)=O)C(=O)Nc1ccc(C)cc1`: the “growth rescue (activation)” value was inactive: 12.9%.
As for `COc1cc(C)c(NC(=O)C(=S)NCCc2ccccc2)cc1C`, the “growth rescue (activation)” value was inactive: 5.83%.
Consider `Cc1nc2ncccn2c1-c1csc(Nc2ccc(O)cc2)n1`, for which the “growth rescue (activation)” value was inactive: 7.87%.
For `COCCNC(=O)Cn1cnc2c(cnn2-c2ccc(C)cc2)c1=O` the value was inactive: -0.568%.
Under `CC(C)C(NC(=O)c1ccc(C(C)(C)C)cc1)C(=O)OCC(=O)NC(=O)Cc1ccccc1` (stereo unspecified) stands inactive: -0.721%; under `CC(NC(=O)COC(=O)c1cc(=O)c2ccccc2o1)c1ccccc1` (stereo unspecified), inactive: -2.66%; under `O=C(O)CCCCCNC(=O)/C=C/c1ccco1`, inactive: -0.107%.
Under `Cc1cccc(N(CC(=O)NC(C)(C)C)C(=O)CNC(=O)c2cccs2)c1` stands inactive: 9.91%; under `CN(C)CCCN(CCCNC(=O)/C=N/O)Cc1ccccc1`, inactive: 11.4%; under `COc1ccc(F)cc1S(=O)(=O)n1nc(C)cc1C`, inactive: 10.3%.
For the compound `CCN(CC)CCN1C(=O)C2C(C(=O)Nc3ccc(Br)cc3)C3C=CC2(O3)C1C(=O)NC1CCCCC1` (stereo unspecified), the “growth rescue (activation)” value is inactive: 5.82%.
For `CC1(NC(=S)NCCO)CCS(=O)(=O)C1` (stereo unspecified) the value was inactive: 8.8%.
For `Cn1c(CNC(=O)c2ccc3c(c2)OCO3)nnc1SCC(=O)Nc1ccccc1F` the value was inactive: 15.2%; for `CCOC(=O)C1CCN(C(=O)C2COc3ccccc3O2)CC1` (stereo unspecified), inactive: 14.5%.
For `CC1(C)NC(=O)N(CC(=O)OCC(=O)Nc2sccc2C#N)C1=O` the value was inactive: 13.6%.
For `CC(C)(C)C1CCc2c(sc(N)c2C(N)=O)C1` (stereo unspecified), the “growth rescue (activation)” value was inactive: 32.9%.
Turning to `CCN(CC)S(=O)(=O)c1cccc(NC(=O)COC(=O)c2cccs2)c1`, the “growth rescue (activation)” value is inactive: 8.75%.
Under `COc1ccccc1C(=O)N/C(=C\c1ccccc1)C(=O)NCc1ccco1` stands inactive: 3.29%; under `COc1ccc(OC)c(CC(=O)Nc2ccc3c(c2)c(=O)n(C)n3Cc2cccc(C(F)(F)F)c2)c1`, inactive: -7.94%.
For `COc1cc(NC(=O)CCc2ccccc2)c(C(=O)O)cc1OC` the value was inactive: 4.79%; for `Cc1ccccc1OCC(O)Cn1c(=N)n(Cc2ccccc2)c2ccccc21` (stereo unspecified), inactive: 9.57%; for `C/C(N)=C(/C#N)C(=O)COC(=O)C1CSC2(c3ccc(F)cc3)CCC(=O)N12` (stereo unspecified), inactive: -7.8%.
For `COc1ccc2c(CC(=O)NNC(=O)c3ccccc3F)coc2c1` the value was inactive: -8.66%; for `Cc1ccc(Sc2ncccc2C(=O)O)cc1`, inactive: 14.1%.
Take `CC1(C(=O)NS(=O)(=O)c2cccc(C#N)c2)CCN1C(=O)c1cccc2ccccc12` (stereo unspecified): the “growth rescue (activation)” value was inactive: 1.1%.
For `N#CCCn1cc(C(=O)Nc2ccc([N+](=O)[O-])cc2)c(-c2cccs2)n1` the value was inactive: -15.8%.
Regarding `COc1ccc(-n2nc(C(=O)NCC(=O)NCCCN3CCOCC3)c3ccccc3c2=O)cc1`, the “growth rescue (activation)” value is inactive: 9.65%.
For `O=C1C2C(c3ccccc3)(C(=O)N1c1ccc(Cl)cc1)C2(c1ccccc1)c1ccccc1` (stereo unspecified) the value was inactive: 11.3%.
For `CCOC(=O)CN(c1ccccc1)S(=O)(=O)c1ccc(F)cc1` the value was inactive: 26.2%; for `Cc1ccccc1-n1c(SCC(=O)Nc2ccc(Cl)cc2Cl)nc(O)cc1=O`, inactive: 24.5%; for `Cc1ccc(S(=O)(=O)N2CCOCC2)cc1NC(=O)CN1CCC(Cc2ccccc2)CC1`, inactive: -6.52%.
On to `CCNc1oc(COc2cccc(C)c2)nc1C#N`, for which the “growth rescue (activation)” value is inactive: 28.3%.
For `COCC(C)n1c(-c2ccc3c(c2)NC(=O)CO3)csc1=Nc1ccc(OC(F)F)cc1` (stereo unspecified), the “growth rescue (activation)” value is inactive: 10.4%.
Turning to `COc1ccc(C2N(C(=O)CN3CCCC3)CCCN2S(=O)(=O)c2ccccc2)cc1` (stereo unspecified), the “growth rescue (activation)” value is inactive: 16%.
As for `O=C(c1ccc([N+](=O)[O-])cc1)n1nc(-c2ccccc2)nc1NCc1ccc(F)cc1`, the “growth rescue (activation)” value is inactive: 5.9%.
Under `Cc1ccc(NS(=O)(=O)c2cc3c4c(cccc4c2)C(=O)NC3=O)cc1C` stands inactive: 26.6%; under `O=C(COC(=O)Cc1ccc(Cl)cc1Cl)NC1CC1`, inactive: 18.5%; under `CC(C)CCN(C(=O)CNC(=O)c1cccs1)C(C(=O)NC1CCCCC1)c1cccnc1` (stereo unspecified), inactive: -5.22%.
In the case of `O=C(COC(=O)c1ccccc1)Nc1cccc(S(=O)(=O)N2CCOCC2)c1`, the “growth rescue (activation)” value is inactive: -14.5%.
For `O=C1NCCN(Cc2ccc(F)cc2)C1CC(=O)N1CC=C(c2ccccc2)CC1` (stereo unspecified) the value was inactive: 6.72%.
Under `O=C(CCc1ccccc1)Nc1nc2c(F)cc(F)cc2s1` stands inactive: 11.9%.
For `CCC(NC(=O)c1cc(COc2ccc(Cl)cc2OC)on1)c1ccncc1` (stereo unspecified) the value was inactive: 7.79%; for `CCC(NC(=O)c1ccccc1NC(=O)C(C)(C)C)C(=O)N1CC(C)OC(C)C1` (stereo unspecified), inactive: 7.71%.
`COc1ccc(CC(N)c2csc(Nc3cc(NCCCO)ncn3)n2)cc1` (stereo unspecified): the “growth rescue (activation)” value was inactive: 0.597%.
On to `CCc1cc(C(=O)OC)c(NC(=O)CC2SC(=NC)N(C)C2=O)s1` (stereo unspecified), for which the “growth rescue (activation)” value is inactive: 2.55%.
For `Cc1nc2ccc(C(=O)Nc3ccc4c(c3)OCC(=O)N4)cn2c1N(C)C(=O)CCc1ccccc1` the value was inactive: 5.44%; for `COc1ccc(C(=O)N/N=C(\N)c2cc3ccccc3oc2=O)cc1`, inactive: -8.21%.
Under `Cc1ccc(Cn2ccc(NC(=O)C3C4CCC(C4)C3C(=O)O)n2)cc1` (stereo unspecified) stands inactive: 13.4%; under `Cc1ccc(NC(=O)c2sc(N)nc2-c2ccc([N+](=O)[O-])cc2)c(C)c1`, inactive: -1.31%; under `Cc1ccc2c(c1)C(=O)C(=O)N2Cc1ccc(OCCC(C)C)cc1`, inactive: -6.7%.
For the compound `CCc1nc2nc(C)c(NS(=O)(=O)c3ccc(Cl)s3)c(=O)n2[nH]1`, the “growth rescue (activation)” value is inactive: 11.2%.
Turning to `Cc1ccc(S(=O)(=O)c2c[nH]c3ccc(Cl)cc3c2=O)cc1`, the “growth rescue (activation)” value is inactive: 4.86%.
For `COc1ccc(C(=O)O)cc1NC(=S)NC(=O)/C=C/c1ccc(C(C)C)cc1` the value was inactive: 2.28%; for `Cc1ccc(C)c(NC(=S)NNC(=O)c2cc3c(s2)CCC(C)C3)c1` (stereo unspecified), inactive: 30.6%; for `COc1cc(/C=C/C(=O)c2ccc(C)c([N+](=O)[O-])c2)cc(OC)c1O`, inactive: -12.4%.
In the case of `O=C(O)c1ccc(NCc2nc3ccccc3n2CCOc2ccccc2Cl)cc1`, the “growth rescue (activation)” value is inactive: 12.6%.
`COCCNC(=O)c1ccc(S(=O)(=O)N2CCCc3ccccc32)cc1`: the “growth rescue (activation)” value was inactive: 19.5%.
Under `CCCCn1c(N)c(N(C)C(=O)c2cc3c(F)cccc3s2)c(=O)[nH]c1=O` stands inactive: 30.2%.
